Source: PubChem BioAssay AID1508642 (National Center for Advancing Translational Sciences (NCATS), 2021)
Screen size: about 43,000 compounds; about 200 (0.47%) were called active. Another 12% or so got no clear call; they are omitted. Calls come from the whole dose curve; as a rule, active = well fitted cell-killing curve with a large enough effect; inconclusive = small, poorly fitted or top-dose-only effect, or effect the other way; inactive = flat fitted curve, though single readings scatter. Some of the results follow.

Experiment: Cell viability qHTS assay in S16 Pmp22-F2sN cells; note: nearly all actives have a fitted effect of over 65% in size
Conditions: S16 Pmp22-F2sN Schwann cells (luciferase reporters placed in the Pmp22 gene) viability, CellTiter-Glo, 24 h; series mostly up to 57.5 µM; activity change, negative = cytotoxicity: at the top concentration
Procedure, shortened: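 S16 Schwann cells carrying the Pmp22-F2sN reporter, seeded in 1536-well format, were exposed to library compounds for 24 h at 37C. Viability was read as CellTiter-Glo luminescence after 15 min at room temperature.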
% is set by controls: 0 for no effect and ±100 for the full control effect; potency is the fitted concentration of half-maximal effect.

Q: With `COC(=O)c1ccccc1NC(=O)c1ccc2c(Cl)c3c(nc2c1)CCCC3` as the compound, how does the “activity change, negative = cytotoxicity” value read?
A: inactive: 9.46%

Q: With `COc1cc2nc(NCc3ccccc3)n3nc(-c4ccccc4)nc3c2cc1OC` as the compound, how does the “activity change, negative = cytotoxicity” value read?
A: inactive: 7.91%

Q: With `CCOC(=O)Cc1ccc(NC(=O)N2CC(C)Oc3ccc(Cl)cc32)cc1` (configuration not stated) as the compound, how does the “activity change, negative = cytotoxicity” value read?
A: inactive: -5.31%

Q: With `Cc1nc2ccn(Cc3cccs3)c(=O)c2cc1C(=O)N1CCN(c2ccccc2)CC1` as the compound, how does the “activity change, negative = cytotoxicity” value read?
A: inactive: -5.05%

Q: Which “activity change, negative = cytotoxicity” value does the source give for `Cc1cccc(Cn2cccc2CNS(=O)(=O)c2ccc(C)c(C)c2)c1` here?
A: inactive: 0.972%

Q: For `O=C(c1ccco1)n1nc(-c2ccc(Cl)cc2)nc1NCc1ccc(F)cc1`, which “activity change, negative = cytotoxicity” value is on record?
A: inactive: 24.6%

Q: For `CCCCN(Cc1ccco1)C(=O)Cn1ncc2c([nH]c3ccccc32)c1=O`, which “activity change, negative = cytotoxicity” value is on record?
A: inactive: 0.788%

Q: For `Cc1ccc(-n2cnc3cc(C(=O)NCc4ccccc4Cl)ccc32)c(C)c1`, which “activity change, negative = cytotoxicity” value is on record?
A: inactive: -22.9%

Q: For `COc1ccc(CC(=O)NCc2ccc3c(c2)CCN3C(=O)c2cccc(C)c2)cc1`, which “activity change, negative = cytotoxicity” value is on record?
A: inactive: 1.67%

Q: Which “activity change, negative = cytotoxicity” value does the source give for `Cc1nc(-n2nc(C)c(Cc3ccc4c(c3)OCO4)c2C)sc1C(=O)Nc1ccc(Cl)cc1` here?
A: inactive: -6.25%

Q: For `CCCOc1cccc(C2c3c(oc4ccc(F)cc4c3=O)C(=O)N2Cc2ccc3c(c2)OCO3)c1` (configuration not stated), which “activity change, negative = cytotoxicity” value is on record?
A: inactive: 4.84%

Q: For `Clc1ccccc1Nc1ncnc2c1nc1n2CCCCC1`, which “activity change, negative = cytotoxicity” value is on record?
A: inactive: 18.4%

Q: For `O=C(Nc1ccc2nc(SCCOc3ccccc3)sc2c1)c1ccc2c(c1)OCO2`, which “activity change, negative = cytotoxicity” value is on record?
A: inactive: 3.21%

Q: Which “activity change, negative = cytotoxicity” value does the source give for `COc1ccc(C2C(C(=O)Nc3ccccc3)=C(C)Nc3nc(-c4ccccc4Cl)nn32)cc1OC` (configuration not stated) here?
A: inactive: -15.4%

Q: With `CCOCCCNc1nc2cc(OC)c(OC)cc2c2nc(-c3ccccc3)nn12` as the compound, how does the “activity change, negative = cytotoxicity” value read?
A: inactive: -5.83%

Q: With `CCOC(=O)c1scc(-c2ccc(C)cc2)c1S(=O)(=O)Nc1ccc(OC)c(Cl)c1` as the compound, how does the “activity change, negative = cytotoxicity” value read?
A: inactive: 5.03%

Q: With `Cc1cccc(NS(=O)(=O)c2ccc3nc(-c4ccccc4)[nH]c3c2)c1C` as the compound, how does the “activity change, negative = cytotoxicity” value read?
A: inactive: -13%

Q: Which “activity change, negative = cytotoxicity” value does the source give for `Cc1ccc(NC(=O)Cn2c(=O)n(CCC(=O)NCc3ccccc3Cl)c(=O)c3ccccc32)c(C)c1` here?
A: inactive: -16.5%

Q: With `Cc1ccc2c(c1)N(C(=O)Nc1cccc3c1CCCC3)CCO2` as the compound, how does the “activity change, negative = cytotoxicity” value read?
A: inactive: 2.13%

Q: For `CCCN1CCN(C(=O)Cn2c(-c3cccs3)cc3cc(F)ccc32)CC1`, which “activity change, negative = cytotoxicity” value is on record?
A: inactive: -1.31%

Q: Which Potency does the source give for `O=C(NCCc1ccccc1)c1ccc(Nc2nc3ccccc3n3nnnc23)cc1` here?
A: active: 28.2 µM

Q: Which “activity change, negative = cytotoxicity” value does the source give for `COc1ccc(CNC(=O)c2ccc(-c3nc(CSc4ccc(C)cc4)c(C)o3)cc2)c(OC)c1` here?
A: inactive: -2.33%

Q: With `CCOC(=O)c1c(NC(=O)CSc2cn(CCNC(=O)c3ccc(OC)cc3)c3ccccc23)sc2c1CCCC2` as the compound, how does the “activity change, negative = cytotoxicity” value read?
A: inactive: 4.97%

Q: With `COc1ccc(C2c3c(n(C)c4ccccc34)C(=O)N2CC(=O)Nc2cccc(Cl)c2)cc1` (configuration not stated) as the compound, how does the “activity change, negative = cytotoxicity” value read?
A: inactive: 9.67%

Q: For `COc1ccccc1NC(=O)c1oc2ccccc2c1NC(=O)Cc1ccccc1`, which “activity change, negative = cytotoxicity” value is on record?
A: inactive: -1.56%

Q: With `COc1ccc(-c2noc(CSc3nnc(C)n3-c3cccc(C)c3)n2)cc1` as the compound, how does the “activity change, negative = cytotoxicity” value read?
A: inactive: -30.2%

Q: Which “activity change, negative = cytotoxicity” value does the source give for `COc1cc(C(=O)NCCc2csc(-c3ccc(Cl)cc3)n2)cc(OC)c1OC` here?
A: inactive: -8.09%

Q: For `COc1ccc(O)c(C2=Nc3ccccc3N=C(c3ccccc3)C2)c1`, which “activity change, negative = cytotoxicity” value is on record?
A: inactive: 0.348%

Q: For `O=C(CN1C(=O)CC(c2ccccc2)=Nc2ccccc21)Nc1ccc(Br)cc1`, which “activity change, negative = cytotoxicity” value is on record?
A: inactive: -14.1%

Q: With `CNC(=O)c1ccc2c(c1)N(Cc1cc(C)ccc1C)C(=O)c1ccccc1S2` as the compound, how does the “activity change, negative = cytotoxicity” value read?
A: inactive: -26.2%

Q: For `Cn1nnc2c(N3CCN(c4ccc(F)cc4)CC3)ncnc21`, which “activity change, negative = cytotoxicity” value is on record?
A: inactive: -1.19%

Q: For `CCOc1cccc(CNC(=O)c2ccc(N3CCCC3)c(NC(=O)NCc3ccccc3)c2)c1`, which “activity change, negative = cytotoxicity” value is on record?
A: inactive: -3.61%

Q: Which “activity change, negative = cytotoxicity” value does the source give for `CCc1ccc(NCc2cc3ccc(OC)cc3n(CC(=O)Nc3c(C)cc(C)cc3C)c2=O)cc1` here?
A: inactive: 7.47%

Q: Which “activity change, negative = cytotoxicity” value does the source give for `CC(C)Oc1ccc(C(=O)N(Cc2ccc(N(C)C)cc2)C2CCS(=O)(=O)C2)cc1` (configuration not stated) here?
A: inactive: -2.68%

Q: Which “activity change, negative = cytotoxicity” value does the source give for `CCc1ccc(CNC(=O)Cn2nc(-c3ccc(C)cc3)ccc2=O)cc1` here?
A: inactive: -16.7%

Q: With `COc1ccccc1N1CCN(C(=O)CCS(=O)(=O)c2ccc3c(c2)oc(=O)n3C)CC1` as the compound, how does the “activity change, negative = cytotoxicity” value read?
A: inactive: -0.767%

Q: With `Fc1ccc(-n2ncc3c(Nc4ccc5c(c4)OCCO5)ncnc32)cc1` as the compound, how does the “activity change, negative = cytotoxicity” value read?
A: inactive: 3.2%

Q: For `Cc1ccc(N2CCN(C(=O)c3cc4cc5ccc(C)cc5nc4s3)CC2C)cc1` (configuration not stated), which “activity change, negative = cytotoxicity” value is on record?
A: inactive: 0.347%

Q: For `Cc1ccc(Nc2sc(C(=O)c3ccccc3)c(N)c2S(=O)(=O)c2ccccc2)cc1Cl`, which “activity change, negative = cytotoxicity” value is on record?
A: inactive: -21.4%

Q: Which “activity change, negative = cytotoxicity” value does the source give for `Cc1ccc(C)c(NC(=O)Cn2cc(S(=O)(=O)Cc3cccc(Cl)c3)c3ccccc32)c1` here?
A: inactive: 0.78%

Q: Which “activity change, negative = cytotoxicity” value does the source give for `CCc1ccc(NC(=O)CN2C(=O)CSc3ccc(S(=O)(=O)N(C)C)cc32)cc1` here?
A: inactive: 1.49%

Q: Which “activity change, negative = cytotoxicity” value does the source give for `Cc1cc(OC(C)C(=O)N(Cc2ccc(N(C)C)cc2)Cc2ccco2)ccc1Cl` (configuration not stated) here?
A: inactive: -1.44%

Q: Which “activity change, negative = cytotoxicity” value does the source give for `Cc1ccccc1C(=O)Nc1cccc(OCc2cc(=O)n3cccc(C)c3n2)c1` here?
A: inactive: -3.94%

Q: For `CCn1cc(C(=O)NCCc2ccc(OC)c(OC)c2)c(=O)c2cc(S(=O)(=O)N(C)C3CCCCC3)ccc21`, which “activity change, negative = cytotoxicity” value is on record?
A: inactive: -25.1%

Q: With `COc1ccc(-c2noc(CN(C(=O)C(C)Oc3ccc(C)cc3)C(C)C)n2)cc1` (configuration not stated) as the compound, how does the “activity change, negative = cytotoxicity” value read?
A: inactive: -19.1%

Q: With `COc1ccc2cc3c(N)nn(C(=O)c4ccccc4Cl)c3nc2c1` as the compound, how does the “activity change, negative = cytotoxicity” value read?
A: inactive: -19.3%

Q: For `CCOc1ccc(NC(=O)N2CCN(c3ccc(Cl)c(Cl)c3)CC2)cc1`, which “activity change, negative = cytotoxicity” value is on record?
A: inactive: -20.5%
